Read-outs that look alike come from different tables or passages of the source. At least one read-out could not be matched to a standard name with certainty.
Columns and labels:
Assay type in all cases: in vivo
[1] = tested on: serum calcium level; assay: Serum calcium after intrarectal (Asu^1.7)-eel calcitonin suppository in rats; details: rat, 0.7 MRC unit calcitonin, 7 parts enhancer
Procedure: (Asu^1.7)-eel calcitonin was gradually added and mixed with the mixture to form a uniform composition. The composition was slightly warmed, and filled into a suppository container to form a suppository for rats having a diameter of about 3 mm and a length of about 8 mm. This suppository contained 0.7 MRC unit of calcitonin. The suppository was intrarectally administered to a rat, and the concentration of calcium in the blood serum after administration was measured by using a calcium measuring kit (made by Iatoron Co.).
For comparison, suppositories (Comparisons 76 to 87) composed of 93 parts of cacao butter, 7 parts of the various pyroglutamates shown in Table 6 and caltitonin and a suppository composed only of cacao butter and caltitonin (Comparison 88) were prepared. They wre individually administered intrarectally to rats, and the calcium concentration in the serum was measured.

[2] = tested on: blood glucose level; assay: Blood glucose after intrarectal hog insulin gelatin capsular suppository in rabbits; details: rabbit, 9.6 units insulin, 10 parts enhancer
Procedure: Fractionated coconut oil (90 parts) and 10 parts of each of the various pyroglutamates indicated in Table 7 were uniformly mixed, and then hog insulin was gradually added to form a uniform dispersion. The dispersion was filled in a gelatin capsule for suppositoes to form a gelatin capsular suppository. The suppository contained 9.6 units of insulin. The suppository was intrarectally administered to a rabbit and the blood glucose level after administration was measured by the glucose oxidase method.
For comparison, suppositories composed of 90 parts of fractionated coconut oil, 10 parts of the various pyroglutamates indicated in Table 7 (Comparisons 89 to 102) and insulin, and a suppository composed only of fractionated coconut oil and insulin (Comparison 103) were prepared, and tested in the same way as above.

[3] = tested on: serum calcium level; details: rabbit, nasal, 15 units/50 microliters calcitonin, 10 parts enhancer

Structure (SMILES) | Percent decrease of the serum calcium level from that before administration ([1]; 1 hr.) [%] | Percent decrease of the serum calcium level from that before administration ([1]; 2 hrs.) [%] | Percent decrease of the serum calcium level from that before administration ([1]; 3 hrs.) [%] | Percent decrease of the serum calcium level from that before administration ([1]; 5 hrs.) [%] | Percent decrease of the blood glucose level from that before administration ([2]; 30 min.) [%] | Percent decrease of the blood glucose level from that before administration ([2]; 1 hr.) [%] | Percent decrease of the blood glucose level from that before administration ([2]; 2 hrs.) [%] | Percent decrease of the blood glucose level from that before administration ([2]; 3 hrs.) [%] | Percent decrease of the serum calcium level from that before administration ([3]; 1 hr.) [%] | Percent decrease of the serum calcium level from that before administration ([3]; 2 hrs.) [%] | Percent decrease of the serum calcium level from that before administration ([3]; 3 hrs.) [%] | Percent decrease of the serum calcium level from that before administration ([3]; 5 hrs.) [%]
CCCCCCCCCCOC(=O)[C@@H]1CCC(=O)N1 [Compound (112), Decyl L-pyroglutamate] | 29.7 | 26.6 | 15.9 | 0.6 | 28.4 | 27.7 | 18.8 | 0.9 | 8.1 | 6.0 | 1.8 | 0
CCCCCCCCCCCOC(=O)C1CCC(=O)N1 (racemic) [Compound (104), Undecyl DL-pyroglutamate] | 30.1 | 20.4 | 11.6 | 0.9 | 21.4 | 22.6 | 21.1 | -0.1 | 7.0 | 7.2 | 2.9 | 
CCCCCCCCCCCCCCCCCCCCOC(=O)C1CCC(=O)N1 (racemic) [Eicosanyl DL-pyroglutamate, reference compound] | 3.6 | 2.4 | 0.9 | 0.9 | -0.9 | 0.6 | 0.7 | -0.5 | 1.2 | 0.9 | 0 | 0
CCCCCCCCCCCCCCCCCOC(=O)C1CCC(=O)N1 (racemic) [Heptadecyl DL-pyroglutamate, reference compound] | 6.7 | 2.9 | 0.9 | 1.3 | 5.5 | 2.4 | 0.9 | 0.2 | 1.5 | 0.8 | 0.6 | 0
CCC=CCCCCCCCCOC(=O)[C@@H]1CCC(=O)N1 [Compound (220), 9-Dodecenyl L-pyroglutamate] | 28.3 | 25.1 | 10.8 | 1.0 | 25.3 | 25.2 | 16.2 | 1.0 | 7.7 | 5.9 | 1.9 | 0
CCCCCCCCCCCCCCOC(=O)C1CCC(=O)N1 (racemic) [Compound (110), Tetradecyl DL-pyroglutamate] | 26.2 | 18.9 | 10.5 | 0.9 | 26.6 | 19.8 | 21.1 | -0.9 | 6.6 | 6.1 | 3.0 | 0
CCCCCCOC(=O)[C@@H]1CCC(=O)N1 [Hexyl L-pyroglutamate, reference compound] | 5.1 | 1.9 | 0.7 | 0.8 | 4.3 | 1.2 | 0.8 | 0 | 1.9 | 0.8 | 0.1 | 0
CCCCCCCCCCCCCCCCCCOC(=O)[C@@H]1CCC(=O)N1 [Octadecyl L-pyroglutamate, reference compound] | 4.4 | 2.2 | 0.8 | 0.5 | 2.5 | 3.3 | 1.6 | 0.1 | 1.6 | 0.7 | 0.1 | 0
CCCCCCCOC(=O)[C@@H]1CCC(=O)N1 [Heptyl L-pyroglutamate, reference compound] | 10.1 | 3.0 | 0.9 | 0.7 | 7.1 | 0.7 | 0.5 | -1.1 | 2.1 | 1.0 | 0.5 | 0
CC1(C)C2CCC1(C)C(OC(=O)[C@@H]1CCC(=O)N1)C2 (stereo partly drawn) [Compound (310), Bornyl L-pyroglutamate] | 26.7 | 20.2 | 12.0 | 0.7 | 28.5 | 24.3 | 17.6 | 2.7 | 5.3 | 4.8 | 1.6 | 0.4

— patent US4789667A, “External pharmaceutical composition and methods of use” (priority 1984, dated 1988)
